The antibiotic and cytotoxicity screens of Wong et al. (2023)
This is one part of the list.

What was measured:
[1] = tested on: HSkMC (human skeletal muscle cells); experiment: cytotoxicity call (relative viability < 0.9); conditions: 10 µM
[2] = tested on: HepG2; experiment: cytotoxicity call (relative viability < 0.9); conditions: 10 µM
[3] = tested on: S. aureus RN4220; experiment: growth inhibition call (relative growth <= 0.2); conditions: 50 µM

C[C@@H]1CCCCO[C@H](CN(C)C(=O)CCC(F)(F)F)[C@H](C)CN([C@@H](C)CO)C(=O)c2cc(NC(=O)NC3CCCCC3)ccc2O1
inactive: cytotoxicity call [1] | cytotoxicity call [2] | growth inhibition call [3]

Cc1noc(C)c1NC(=O)Nc1cccc2c1O[C@H](CN(C)S(=O)(=O)c1ccccc1)[C@H](C)CN([C@H](C)CO)C2=O
inactive: cytotoxicity call [1] | cytotoxicity call [2] | growth inhibition call [3]

C[C@@H]1CN([C@H](C)CO)C(=O)CCCn2nncc2CO[C@@H]1CN(C)Cc1ccc(C(=O)Nc2ccccc2N)cc1
inactive: cytotoxicity call [1] | cytotoxicity call [2] | growth inhibition call [3]

Cc1ccc(-n2cnc3cc(NCc4cccs4)ccc32)cc1
inactive: cytotoxicity call [1] | cytotoxicity call [2] | growth inhibition call [3]
